# From ChEMBL document CHEMBL4888484, “Replenishing the malaria drug discovery pipeline: Screening and hit evaluation of the MMV Hit Generation Library 1 (HGL1) against asexual blood stage Plasmodium falciparum ,using a nano luciferase reporter read-out” (2022)
# About 540 (0.36%) of roughly 150,000 compounds showed an effect of 50% or more. Some of the results follow.
# System: Plasmodium falciparum
# Test: Primary screen in NF54 nanoGlo assay, in single point, at 2uM, 72h; a lower Z score goes with more inhibition
# Format: functional, Erythrocyte
# Conditions: timepoint 72 hour
Structure (SMILES),% Inhibition [%],Z score
CC1(C)CN(C(=O)c2ncn(C(C)(C)C)n2)[C@H]1C1CC1,30,-3.34
COc1ccc(-c2nonc2NC(=O)c2nn(-c3ccc(C)cc3)ccc2=O)cc1OC,-4,0.71
Cc1cnn(CCN[C@@H](C)C(=O)N2CCCC2)c1,-4,0.55
CC(C)(CO)CNC(=O)COc1ccccc1Br,40,-3.37
Cc1cc(C)cc(N2CC[C@H](NC(=O)NCc3ccco3)C2=O)c1,-9,1.42
CCCc1cc(C(=O)NCCN2CC[C@H](c3ccccc3C)C2)[nH]n1,-7,1.21
Cc1cc(NC(=O)c2cnns2)ccc1Oc1ccncc1,-7,1.35
CC#CC(=O)N[C@@H](C)c1cc2cc(F)ccc2o1,-8,0.84
CC(C)CC(=O)Nc1c(C2CC2)n[nH]c1-c1cccc(Cl)c1,-2,0.17
CCn1cnc2cc(-c3noc(-c4ccccc4)n3)ccc21,-13,1.67
COCCN1C[C@@H](Cc2cccc(-n3cnnc3)c2)CC1=O,-6,0.86
Cc1noc(C)c1C(=O)N1CC(F)(F)C[C@H]1c1nc(C2CC2)no1,-11,1.97
O=C(NCCCCn1ccnc1)c1c[nH]nc1-c1c(F)cccc1F,1,-0.09
CC(C)n1[nH]c(=O)c2c1NC(=O)C[C@H]2C1CCCCC1,35,-0.88
Cc1c(CNCc2cnc(-c3ccco3)s2)cnn1C,-5,0.53
CNC(=O)c1cccc(C(=O)O[C@@H](C)c2cccnc2)c1,-5,0.48
Cn1ccnc1-c1cncc(Br)c1,-1,0.24
COc1ccc2c(c1)OC[C@]1(CO)CN(Cc3ccc(Cl)c(F)c3)C[C@H]21,-15,1.43
Cc1cc(S(C)(=O)=O)cc(C(=O)N[C@H]2CCO[C@@H]2c2cc[nH]n2)c1C,-15,2.05
O=C(c1cnccn1)N1CC=C(c2ccccc2)CC1,-5,0.68
CC(=O)N1CCC[C@H](Nc2nc(N)nc3[nH]cnc23)C1,0,0.04
CC(C)[C@H](NC(=O)c1ccc(Cl)c(F)c1)c1ncnn1C,-4,0.76

Structure (SMILES),% Inhibition [%],Z score
COc1cc2c(cc1OC)[C@H](c1ccccc1)N(CC(=O)N1CCOCC1)CC2,-7,0.8
CC1=C(C(=O)NCCn2ncnn2)CCC1,7,-1.21
CN(Cc1cscn1)Cc1ncc[nH]1,-19,2.66
COc1ccccc1CNC(=O)c1c(OC)cc(=O)n2c1CCN(Cc1cccc(F)c1)CC2,-11,1.65
CC(C)N(CC1CC2C=CC1C2)C(=O)CCNC(N)=O (stereo not given),-7,0.86
Cc1c(NC(=O)CC2(C(F)(F)F)OCCO2)c(=O)n(-c2ccccc2)n1C,4,-0.53
CCN1CCN(c2cc(C)nc3nc(CN(CC)Cc4ccccc4)nn23)CC1,7,-0.87
Cn1c(Cn2cncn2)nnc1C1CCN(c2ncnc3[nH]cnc23)CC1,-15,1.45
c1ccc(C2(CNc3ncnc4[nH]ncc34)CCC2)nc1,-6,1.2
CN(CCCn1ccnc1)C(=O)NC1CCCC1c1ccc(F)cc1 (stereo not given),-6,0.76
O=C1CCc2c(OCc3noc(C4CCCCC4)n3)cccc21,9,-1.12
O=C(Cn1nccn1)N1CCN(Cc2ccc3c(c2)OCO3)CC1,2,-0.28
C=CCCC(=O)Nc1ccc(C(C)=O)c(Cl)c1,12,-1.94
Cc1cc(C)c2[nH]c(C)c(CC(=O)NCCNc3ncccc3C)c2c1,-14,1.98
Cc1ccc(-c2nc3c4ccccc4ccn3c2CN2CCCCC2)cc1,0,-0.01
O=C(CCCc1ccc(F)c(F)c1)N[C@H]1CC12CCOCC2,6,-1.16
Cc1nc(NCc2nc(-c3cnccn3)n[nH]2)c2cccnc2n1,-15,1.96
O=C(c1nccc2ccccc12)N1CCOc2ccc(N3CCCC3)cc2C1,6,-1.14
CN([C@H]1CCc2nn(CC3CC3)c(=O)n2CC1)S(=O)(=O)c1ccc2c(c1)CCC2,-13,2.04
CCN1C(=O)Cc2cc(NS(=O)(=O)c3ccc4c(c3)OCCO4)ccc21,-15,1.74
COC(=O)[C@H](NCc1nnc(C)o1)c1ccc(Cl)cc1Cl,-13,1.69
COc1ccc(Cl)cc1C(=O)Nc1ccc2nc3n(c(=O)c2c1)CCCC3,0,0.05

Structure (SMILES),% Inhibition [%],Z score
Cc1ccccc1NS(=O)(=O)CC(C)C,-5,0.65
CCCCN1CCOC[C@H]1C(=O)Nc1cccc(-n2cnnc2C)c1,-8,1.17
Cc1cccc(CN2C[C@H](O)[C@@H](N3CCN(c4ccccn4)CC3)C2)c1,-29,2.55
O=C(Cc1cccs1)NCCc1c[nH]cn1,-8,1.57
Cc1ccccc1OCCCC(=O)N1CCCc2cc(S(=O)(=O)N3CCCC3)ccc21,-1,0.13
COCC(C)(C)NCc1ccc(OC)c(OC)c1,-3,0.37
O=C(c1cccc(F)c1)N(CC(=O)N1CCc2sccc2C1COc1ccc(Cl)cc1)CC1CCCO1 (stereo not given),-11,1.4
CCOc1ccc2c(c1)[C@@H](C)CC(C)(C)N2S(=O)(=O)c1cc(C(=O)N(C)C)n(C)c1,1,-0.12
O=C(NC[C@H]1Cn2cc(-c3ccccc3)nc2CO1)NC1CCCCC1,31,-3.58
CCCn1nc(-c2cc(C)sc2C)cc1C(=O)Nc1ccc(F)cc1,-2,0.18
O=C(CC1CCOCC1)N1CCC(Cc2ccccc2)CC1,-5,0.98
Cc1cccc(C)c1NCC(=O)Nc1nc(C#N)c(C#N)[nH]1,-1,0.1
CC1(C)NC(=O)N(Cc2nc3cc(C(F)(F)F)ccc3o2)C1=O,-4,0.76
Cc1nn(C)c2nc(O[C@@H](C)C(=O)N3CCCCCC3)cc(-c3ccccc3)c12,-1,0.11
NC(=O)C1(NCCOc2ccc(F)cc2)CCCCC1,-1,0.13
Cc1noc(C2CN(C(=O)c3c(C)nn(C)c3C)CC2c2ccccc2)n1 (stereo not given),-9,1.71
CN(CCn1cccn1)S(=O)(=O)c1ccc2c(c1)OCCCO2,3,-0.47
CN(C)S(=O)(=O)c1cccc(C(=O)NCC(C)(C)CNC(=O)c2cccc(S(=O)(=O)N(C)C)c2)c1,-6,1.06
COC(=O)NC[C@H](O)c1ccc(-c2ccco2)cc1,-5,0.61
Cc1ccc2c(c1)CCCN2C(=O)c1c(-c2ccccc2)noc1C,-12,1.37
CC(C)OCCS(=O)(=O)NCc1cccc(Cl)c1F,-2,0.16
CC(C)c1nnc2n1[C@H](C(=O)NCC(N)=O)CCCC2,-14,1.68

Structure (SMILES),% Inhibition [%],Z score
COc1ccc(C(=O)CC#N)cc1OC,-3,0.34
Cn1nc(C(F)(F)F)cc1CNC(=O)Nc1cnnn1C,2,-0.37
CC[C@H](C)n1cc(C(=O)NCc2ccc(Cl)s2)c(=O)c(C(=O)N2CCCCCC2)c1,10,-1.7
O=S(=O)(NC1CCc2ccc(Cl)cc21)[C@H]1COC[C@@H]1O (stereo not given in full),-11,1.47
CC1CN(Cc2ccccc2)CCC1N(C)Cc1cscn1 (stereo not given),0,-0.03
CCN(CC)[C@H]1CCN(S(=O)(=O)c2ccc3c(c2)CCO3)C1,-6,0.79
C1CCN2CCC[C@@H](CCc3nc(CN4CCOCC4)no3)[C@H]2C1,-9,0.98
CCN(CC)c1ccc(NC(=O)c2ccc(OCC(C)C)nc2)cn1,-8,1.26
O=C(NCc1nc2c(s1)CCCC2)[C@@H]1COc2ccc(O)cc2O1,-7,1.14
Cc1ccccc1NC(=O)Cc1nnc2c(-c3nc(C4CC4)no3)cccn12,-7,1.03
CC(C)=CCC/C(C)=C/CNC(=O)Nc1ccnn1C,-14,1.53
O=C1CC(C(=O)NCc2ccc(NC(=O)C(F)(F)F)nc2)C1,-3,0.48
Cc1ccc(C(=O)Cn2cnc3c2c(=O)n(C2CCCC2)c(=O)n3-c2ccccc2Cl)cc1,-13,1.87
COc1ccc(-c2noc3nc(C)cc(C(=O)Nc4c(C)nn(Cc5ccc(F)cc5)c4C)c23)cc1,-6,0.83
O=C(Nc1ccc(Cl)cn1)c1cccc2ccccc12,-6,1.15
CCc1cc(NC(=O)[C@H]2CC(=O)N(c3ccc(C)cc3)C2)n(C)n1,-9,1.6
COc1ccc(OC)c(CNC(=O)COc2ccc(N3CCN(C4CCCCC4)CC3)nn2)c1,4,-0.71
CC(C)CC(=O)C1CCCN(C(=O)CCC2(Cc3cccc4ccccc34)CCC(=O)N2)C1 (stereo not given),13,-1.7
Cc1cc(C(=O)N[C@H]2[C@H](O)[C@H](O)C[C@@H]2c2ccccc2)nn1C,10,-1.3
